In a collection of fitness landscapes (doi:10.1016/j.celrep.2020.107928):
Over roughly 81,000 sequences, “one-hybrid fitness for binding parS DNA” has its median near -0.17; the highest 2% begin near 0.51. The list shows a part of the results.

B1: Caulobacter ParB omega fusion; a variant is named by its letters at X, in order, B8GW30 (parent)
chain: MESVVVGEPGMSEGRRGLGRGLSALLGEVDAAPAQAPGEQLGGSREAPIEILQRNPDQPRRTFREEDLEDLSNSIREKGVLQPILVRPSPDTAGEYQIVAGERAWRAAQRAGLKTVPIMVRELDDLAVLEIGIIENVQRADLNVLEEALSYKVLMEKFERTQENIAQTIGKSXSHVANXMRLLXLPDEVQSYLVSGELTAXHARAIAAAADPVALAKQIIEGGLSVRETEALARKAPNLSAGKSKGGRPPRVKDTDTQALESDLSSVLGLDVSIDHRGSTGTLTITYATLEQLDDLCNRLTRGI

Variants of: B1
Assay: one-hybrid fitness for binding parS DNA (scaled: cognate 1, non-cognate 0); higher = stronger binding
Conditions: with parS DNA site
In short: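 The reporter was HIS3, with the binding site 19 bp from the promoter, in E. coli USO used for bacterial one-hybrid selection of Caulobacter ParB libraries with four specificity codons randomised. Growth was on M9 lacking histidine, with 0.1 mM IPTG and 5 mM 3-AT, for 48 hours at 37°C. Illumina sequencing covered plasmids before and after selection; three replicate libraries were pooled and variants with under 10 reads dropped. A fitness score is the log change in variant-to-wild-type read ratio, rescaled to the cognate and non-cognate references.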

| Variant | one-hybrid fitness for binding parS DNA |
| --- | --- |
| ILSC | ≤ 0.2 |
| GYTL | ≤ 0.2 |
| GHHC | ≤ 0.2 |
| LLRI | ≤ 0.2 |
| TCPA | ≤ 0.2 |
| NYFL | ≤ 0.2 |
| DLIT | ≤ 0.2 |
| QKEY | ≤ 0.2 |
| WNNR | ≤ 0.2 |
| KKNN | ≤ 0.2 |
| PYSL | ≤ 0.2 |
| LWYT | ≤ 0.2 |
| VMVG | ≤ 0.2 |
| PPPC | ≤ 0.2 |
| PGPE | ≤ 0.2 |
| TAWG | ≤ 0.2 |
| DVQS | ≤ 0.2 |
| TPLM | ≤ 0.2 |
| SDRR | ≤ 0.2 |
| HRHL | ≤ 0.2 |
| DQAT | ≤ 0.2 |
| TYGN | ≤ 0.2 |
| TGKV | ≤ 0.2 |
| QMWK | ≤ 0.2 |
| DSHL | ≤ 0.2 |

| Variant | one-hybrid fitness for binding parS DNA |
| --- | --- |
| LNIT | ≤ 0.2 |
| VMCV | ≤ 0.2 |
| QHKY | ≤ 0.2 |
| ELPD | ≤ 0.2 |
| KNTT | ≤ 0.2 |
| VFIC | ≤ 0.2 |
| RMDG | 0.917 |
| TQNT | ≤ 0.2 |
| RPDD | ≤ 0.2 |
| VVLS | ≤ 0.2 |
| AMIR | ≤ 0.2 |
| VNFE | ≤ 0.2 |
| AWTV | ≤ 0.2 |
| KQTT | ≤ 0.2 |
| HPFV | ≤ 0.2 |
| WDDY | ≤ 0.2 |
| WKRL | ≤ 0.2 |
| ALGM | ≤ 0.2 |
| QVGL | ≤ 0.2 |
| DFES | ≤ 0.2 |
| QNTN | ≤ 0.2 |
| WCVT | ≤ 0.2 |
| PTAK | ≤ 0.2 |
| WSWF | ≤ 0.2 |
| THES | ≤ 0.2 |

| Variant | one-hybrid fitness for binding parS DNA |
| --- | --- |
| ADGT | ≤ 0.2 |
| QLCP | ≤ 0.2 |
| NSTL | ≤ 0.2 |
| QQTL | ≤ 0.2 |
| SEKV | ≤ 0.2 |
| YNAR | ≤ 0.2 |
| HRTH | ≤ 0.2 |
| RCNP | ≤ 0.2 |
| ILHN | ≤ 0.2 |
| CHMY | ≤ 0.2 |
| SNEL | ≤ 0.2 |
| YQFG | ≤ 0.2 |
| YIRF | ≤ 0.2 |
| KYAS | ≤ 0.2 |
| CHVW | ≤ 0.2 |
| DKTT | ≤ 0.2 |
| LADW | ≤ 0.2 |
| AIVY | ≤ 0.2 |
| TGLP | ≤ 0.2 |
| MYMS | ≤ 0.2 |
| IKAT | ≤ 0.2 |
| GVRT | ≤ 0.2 |
| MSNI | ≤ 0.2 |
| INHC | ≤ 0.2 |
| SMRL | ≤ 0.2 |

| Variant | one-hybrid fitness for binding parS DNA |
| --- | --- |
| YTNS | ≤ 0.2 |
| PTMS | ≤ 0.2 |
| RKDD | ≤ 0.2 |
| HSES | ≤ 0.2 |
| DPHM | ≤ 0.2 |
| HALC | ≤ 0.2 |
| MFAS | ≤ 0.2 |
| RYRS | 0.824 |
| PAFS | ≤ 0.2 |
| KHER | ≤ 0.2 |
| LNDF | ≤ 0.2 |
| STTF | ≤ 0.2 |
| LTEG | ≤ 0.2 |
| LWGY | ≤ 0.2 |
| KMSC | ≤ 0.2 |
| SPLV | ≤ 0.2 |
| TLRM | ≤ 0.2 |
| RLEN | 0.4 |
| DSSC | ≤ 0.2 |
| WLYT | ≤ 0.2 |
| EWEG | ≤ 0.2 |
| PATV | ≤ 0.2 |
| MGKT | ≤ 0.2 |
| ECRT | ≤ 0.2 |
| PIHC | ≤ 0.2 |

| Variant | one-hybrid fitness for binding parS DNA |
| --- | --- |
| REAC | ≤ 0.2 |
| PQQL | ≤ 0.2 |
| PWNV | ≤ 0.2 |
| EHPG | ≤ 0.2 |
| FAQS | ≤ 0.2 |
| QVCH | ≤ 0.2 |
| QACI | ≤ 0.2 |
| SNPT | ≤ 0.2 |
| FIGG | ≤ 0.2 |
| SPNR | ≤ 0.2 |
| RENA | ≤ 0.2 |
| TEGT | ≤ 0.2 |
| AEWR | ≤ 0.2 |
| SSIV | ≤ 0.2 |
| RQMK | ≤ 0.2 |
| YKYC | ≤ 0.2 |
| SNMW | ≤ 0.2 |
| PVQE | ≤ 0.2 |
| RKSW | ≤ 0.2 |
| PLIP | ≤ 0.2 |
| RPGY | ≤ 0.2 |
| RWCI | ≤ 0.2 |
| CCRS | ≤ 0.2 |
| RPTP | ≤ 0.2 |
| YKMG | ≤ 0.2 |

| Variant | one-hybrid fitness for binding parS DNA |
| --- | --- |
| HCSR | ≤ 0.2 |
| PIRS | ≤ 0.2 |
| MSFS | ≤ 0.2 |
| ECVG | ≤ 0.2 |
| GEHG | ≤ 0.2 |
| LEHE | ≤ 0.2 |
| WAAR | ≤ 0.2 |
| MGRA | ≤ 0.2 |
| PHGR | ≤ 0.2 |
| AAES | ≤ 0.2 |
| PREM | ≤ 0.2 |
| ARHM | ≤ 0.2 |
| LYHT | ≤ 0.2 |
| KMWT | ≤ 0.2 |
| TPQT | ≤ 0.2 |
| LYWW | ≤ 0.2 |
| EDAT | ≤ 0.2 |
| TACW | ≤ 0.2 |
| EDYM | ≤ 0.2 |
| AGFR | ≤ 0.2 |
| TSME | ≤ 0.2 |
| HSDG | ≤ 0.2 |
| ISMH | ≤ 0.2 |
| VPVC | ≤ 0.2 |
| PITW | ≤ 0.2 |

| Variant | one-hybrid fitness for binding parS DNA |
| --- | --- |
| QDAE | ≤ 0.2 |
| IRDR | ≤ 0.2 |
| GELY | ≤ 0.2 |
| RSAN | 0.426 |
| CLAV | ≤ 0.2 |
| WDCT | ≤ 0.2 |
| RWVV | ≤ 0.2 |
| SDDH | ≤ 0.2 |
| QFSR | ≤ 0.2 |
| LNNV | ≤ 0.2 |
| QSKF | ≤ 0.2 |
| NPSF | ≤ 0.2 |
| CTSM | ≤ 0.2 |
| RMIR | ≤ 0.2 |
| LELR | ≤ 0.2 |
| QTPG | ≤ 0.2 |
| NRWG | ≤ 0.2 |
| ILAL | ≤ 0.2 |
| SEPL | ≤ 0.2 |
| YVQV | ≤ 0.2 |
| QDLL | ≤ 0.2 |
| VYGS | ≤ 0.2 |
| KMWY | ≤ 0.2 |
| NAYL | ≤ 0.2 |
| FNRW | ≤ 0.2 |

| Variant | one-hybrid fitness for binding parS DNA |
| --- | --- |
| RPTD | ≤ 0.2 |
| QKGR | ≤ 0.2 |
| TQVE | ≤ 0.2 |
| WGAG | ≤ 0.2 |
| AAAA | ≤ 0.2 |
| ARYR | ≤ 0.2 |
| TFDR | ≤ 0.2 |
| WKWG | ≤ 0.2 |
| ASPT | ≤ 0.2 |
| AQRS | ≤ 0.2 |
| CLTF | ≤ 0.2 |
| PNFW | ≤ 0.2 |
| MFHR | ≤ 0.2 |
| RIKD | ≤ 0.2 |
| QYCN | ≤ 0.2 |
| AADV | ≤ 0.2 |
| PWSY | ≤ 0.2 |
| HHMC | ≤ 0.2 |
| GDLS | ≤ 0.2 |
| QKYL | ≤ 0.2 |
